# The full ranking holds about 81,000 sequences; the median of “one-hybrid fitness for binding parS DNA” is about -0.17, and the highest 2% start at about 0.51. Some of the results follow.
# B1: Caulobacter ParB omega fusion; a variant is named by its letters at X, in order, B8GW30 (parent)
# chain: MESVVVGEPGMSEGRRGLGRGLSALLGEVDAAPAQAPGEQLGGSREAPIEILQRNPDQPRRTFREEDLEDLSNSIREKGVLQPILVRPSPDTAGEYQIVAGERAWRAAQRAGLKTVPIMVRELDDLAVLEIGIIENVQRADLNVLEEALSYKVLMEKFERTQENIAQTIGKSXSHVANXMRLLXLPDEVQSYLVSGELTAXHARAIAAAADPVALAKQIIEGGLSVRETEALARKAPNLSAGKSKGGRPPRVKDTDTQALESDLSSVLGLDVSIDHRGSTGTLTITYATLEQLDDLCNRLTRGI
# Variants of: B1
# Assay: one-hybrid fitness for binding parS DNA (scaled: cognate 1, non-cognate 0); higher = stronger binding
# Settings: with parS DNA site
# Summary of the method: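 Bacterial one-hybrid selection in E. coli USO rpoZ- hisB- pyrF- with a HIS3 reporter carrying the site 19 bp from the promoter, screening Caulobacter ParB libraries with four specificity codons randomised (NNS). Cells grew 48 hours at 37°C on M9-minus-histidine plus 0.1 mM IPTG and 5 mM 3-AT. Plasmids before and after selection were Illumina-sequenced, three replicate libraries pooled, and variants under 10 reads dropped. Fitness is the log change in variant-to-wild-type read ratio, rescaled to cognate 1, non-cognate 0.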
row,Variant,one-hybrid fitness for binding parS DNA
1,VHTG,≤ 0.2
2,NLQC,≤ 0.2
3,GHSF,≤ 0.2
4,IEYT,≤ 0.2
5,IMVC,≤ 0.2
6,QYSI,≤ 0.2
7,YEHV,≤ 0.2
8,RCLL,≤ 0.2
9,NHET,≤ 0.2
10,PRDL,≤ 0.2
11,TRVF,≤ 0.2
12,LLGN,≤ 0.2
13,LSHY,≤ 0.2
14,SFKW,≤ 0.2
15,TGRN,≤ 0.2
16,RTGH,≤ 0.2
17,NQKD,≤ 0.2
18,WHHC,≤ 0.2
19,AKAN,≤ 0.2
20,TCHS,≤ 0.2
21,FGCC,≤ 0.2
22,MKGG,≤ 0.2
23,SLSM,≤ 0.2
24,VLMM,≤ 0.2

row,Variant,one-hybrid fitness for binding parS DNA
1,PLED,≤ 0.2
2,QNTL,≤ 0.2
3,EQSR,≤ 0.2
4,KRCD,≤ 0.2
5,SCYL,≤ 0.2
6,DADY,≤ 0.2
7,KFNT,≤ 0.2
8,WMGC,≤ 0.2
9,AHSF,≤ 0.2
10,QLAH,≤ 0.2
11,AFLC,≤ 0.2
12,SHVE,≤ 0.2
13,LPDC,≤ 0.2
14,SDYK,≤ 0.2
15,IEPG,≤ 0.2
16,APYR,≤ 0.2
17,QSET,≤ 0.2
18,RHVS,0.927
19,RQKH,0.269
20,PVND,≤ 0.2
21,SCVN,≤ 0.2
22,PRTG,≤ 0.2
23,HWLH,≤ 0.2
24,FCYM,≤ 0.2

row,Variant,one-hybrid fitness for binding parS DNA
1,IICR,≤ 0.2
2,WFVS,≤ 0.2
3,KSCQ,≤ 0.2
4,SNKR,≤ 0.2
5,AGRP,≤ 0.2
6,WTVL,≤ 0.2
7,FMKS,≤ 0.2
8,SDMA,≤ 0.2
9,GEVS,≤ 0.2
10,VHFR,≤ 0.2
11,PDCE,≤ 0.2
12,QLEC,≤ 0.2
13,RKEL,≤ 0.2
14,EPDT,≤ 0.2
15,VTAW,≤ 0.2
16,LGTN,≤ 0.2
17,GAIS,≤ 0.2
18,WGKT,≤ 0.2
19,CHPW,≤ 0.2
20,AYFI,≤ 0.2
21,ADPK,≤ 0.2
22,EMVP,≤ 0.2
23,NKTT,≤ 0.2
24,KTDF,≤ 0.2

row,Variant,one-hybrid fitness for binding parS DNA
1,LNVS,≤ 0.2
2,CTRN,≤ 0.2
3,SKSA,≤ 0.2
4,TLCQ,≤ 0.2
5,HRWY,≤ 0.2
6,CRCD,≤ 0.2
7,QPRA,≤ 0.2
8,CCGC,≤ 0.2
9,LVNG,≤ 0.2
10,WLQM,0.238
11,NNLK,≤ 0.2
12,DALM,≤ 0.2
13,HWHS,≤ 0.2
14,RQVF,≤ 0.2
15,MTVT,≤ 0.2
16,VTTS,≤ 0.2
17,NFGG,≤ 0.2
18,HWGS,≤ 0.2
19,DCRG,≤ 0.2
20,WTTT,≤ 0.2
21,QMSQ,≤ 0.2
22,ITCS,≤ 0.2
23,RRQD,≤ 0.2
24,RCTP,≤ 0.2

row,Variant,one-hybrid fitness for binding parS DNA
1,TCCT,≤ 0.2
2,QLNR,≤ 0.2
3,LNCV,≤ 0.2
4,DRAV,≤ 0.2
5,VCVF,≤ 0.2
6,TKPM,≤ 0.2
7,STHE,≤ 0.2
8,VKGF,≤ 0.2
9,QLVR,≤ 0.2
10,FQPR,≤ 0.2
11,RMHT,0.946
12,PSNK,≤ 0.2
13,DLQG,≤ 0.2
14,MLLC,≤ 0.2
15,QALL,≤ 0.2
16,TFRC,≤ 0.2
17,DDPT,≤ 0.2
18,NVQL,≤ 0.2
19,HRPE,≤ 0.2
20,TVRR,≤ 0.2
21,GPSN,≤ 0.2
22,FKPA,≤ 0.2
23,YAYV,≤ 0.2
24,DANW,≤ 0.2

row,Variant,one-hybrid fitness for binding parS DNA
1,AGGN,≤ 0.2
2,KFRS,≤ 0.2
3,HRQL,≤ 0.2
4,KASI,≤ 0.2
5,MWLG,≤ 0.2
6,YPKR,≤ 0.2
7,WSSG,≤ 0.2
8,AVTE,≤ 0.2
9,WVIC,≤ 0.2
10,FHAE,0.337
11,VMAG,≤ 0.2
12,NFGS,≤ 0.2
13,KMWF,≤ 0.2
14,DFWV,≤ 0.2
15,QCKM,≤ 0.2
16,SALA,≤ 0.2
17,RYDN,0.407
18,IPTF,≤ 0.2
19,AQCG,≤ 0.2
20,VRHT,≤ 0.2
21,PWDE,≤ 0.2
22,VLDV,≤ 0.2
23,VVRN,≤ 0.2
24,MRIT,≤ 0.2

row,Variant,one-hybrid fitness for binding parS DNA
1,AWEG,≤ 0.2
2,ALCL,≤ 0.2
3,WYNW,≤ 0.2
4,GHIS,≤ 0.2
5,GQYF,≤ 0.2
6,DMDC,≤ 0.2
7,DMSC,≤ 0.2
8,FCRT,≤ 0.2
9,WHRR,≤ 0.2
10,VGPS,≤ 0.2
11,RDKL,≤ 0.2
12,YLVK,≤ 0.2
13,LANE,≤ 0.2
14,TSVW,≤ 0.2
15,CTFC,≤ 0.2
16,TQPW,≤ 0.2
17,KLRN,≤ 0.2
18,EHLW,≤ 0.2
19,ILGS,≤ 0.2
20,DVWT,≤ 0.2
21,STDR,≤ 0.2
22,SCER,≤ 0.2
23,HVKV,≤ 0.2
24,VRLS,≤ 0.2

row,Variant,one-hybrid fitness for binding parS DNA
1,NIII,≤ 0.2
2,HCPC,≤ 0.2
3,WAGN,≤ 0.2
4,VPAH,0.227
5,CPIL,≤ 0.2
6,CLCV,≤ 0.2
7,TTLC,≤ 0.2
8,ATHM,≤ 0.2
9,NNNA,≤ 0.2
10,AITL,≤ 0.2
11,SPGL,≤ 0.2
12,HSNT,≤ 0.2
13,YHRV,≤ 0.2
14,QQFM,≤ 0.2
15,SPEG,≤ 0.2
16,TQFS,≤ 0.2
17,PACN,≤ 0.2
18,IPWR,≤ 0.2
19,PIEA,≤ 0.2
20,TWVS,≤ 0.2
21,GEVF,≤ 0.2
22,RFGR,≤ 0.2
23,HFAM,≤ 0.2
24,NASS,≤ 0.2

row,Variant,one-hybrid fitness for binding parS DNA
1,FKKT,≤ 0.2
2,MNAW,≤ 0.2
3,HMHM,≤ 0.2
4,LIWY,≤ 0.2
5,DESS,≤ 0.2
6,MYGC,≤ 0.2
7,QTET,≤ 0.2
8,TRWV,≤ 0.2
9,DDPE,≤ 0.2
10,EWPD,≤ 0.2
11,TPAE,≤ 0.2
12,KVWS,≤ 0.2
13,APGW,≤ 0.2
14,VMIS,≤ 0.2
15,LDSK,≤ 0.2
16,YCIC,≤ 0.2
17,HRFS,0.241
18,GIPD,≤ 0.2
19,SQEI,≤ 0.2
20,QLAV,≤ 0.2
21,KPQS,≤ 0.2
22,TACS,≤ 0.2
23,LCPE,≤ 0.2
24,WNIS,≤ 0.2

row,Variant,one-hybrid fitness for binding parS DNA
1,NGRG,≤ 0.2
2,SFLF,≤ 0.2
3,NMYG,≤ 0.2
4,ADKA,≤ 0.2
5,SKWR,≤ 0.2
6,QPTF,≤ 0.2
7,PVDL,≤ 0.2
8,VMPR,≤ 0.2
9,ATIG,≤ 0.2
10,VQKH,≤ 0.2
11,ARFY,≤ 0.2
12,RGKQ,≤ 0.2
13,IELS,≤ 0.2
14,EINP,≤ 0.2
15,KHSC,≤ 0.2
16,WSPT,≤ 0.2
17,NKNS,≤ 0.2
18,RTSM,0.297
19,SLNL,≤ 0.2
20,GNKT,≤ 0.2
21,RKCR,≤ 0.2
22,IVWV,≤ 0.2
23,QKKV,≤ 0.2
24,SVLW,≤ 0.2

row,Variant,one-hybrid fitness for binding parS DNA
1,LCGD,≤ 0.2
2,NKRL,≤ 0.2
3,SMLD,≤ 0.2
4,KRWV,≤ 0.2
5,MVCR,≤ 0.2
6,WNPR,≤ 0.2
7,PALG,≤ 0.2
8,QGHE,≤ 0.2
9,MTIP,≤ 0.2
10,DTLG,≤ 0.2
11,PEPL,≤ 0.2
12,DKCS,≤ 0.2
13,YYWR,≤ 0.2
14,MSWC,≤ 0.2
15,QHYD,≤ 0.2
16,VVGG,≤ 0.2
17,QYRR,≤ 0.2
18,PWNH,≤ 0.2
19,IAAT,≤ 0.2
20,GQTT,≤ 0.2
21,AHTG,≤ 0.2
22,KKPL,≤ 0.2
23,PRNQ,≤ 0.2
24,WKPT,≤ 0.2

row,Variant,one-hybrid fitness for binding parS DNA
1,NLAS,≤ 0.2
2,YAFA,≤ 0.2
3,TKMA,≤ 0.2
4,AKIG,≤ 0.2
5,QWAE,≤ 0.2
6,QPTT,≤ 0.2
7,QACL,≤ 0.2
8,QQAY,≤ 0.2
9,RLTL,≤ 0.2
10,PKVS,≤ 0.2
11,RTDK,≤ 0.2
12,SLNN,≤ 0.2
13,ARIT,≤ 0.2
14,GVRV,≤ 0.2
15,YPAM,≤ 0.2
16,RQQV,≤ 0.2
17,GITG,≤ 0.2
18,PYTW,≤ 0.2
19,KNHG,≤ 0.2
20,PTDK,≤ 0.2
21,DDNA,≤ 0.2
22,AFHL,≤ 0.2
23,QDSC,≤ 0.2
24,TTSH,≤ 0.2

row,Variant,one-hybrid fitness for binding parS DNA
1,AGYC,≤ 0.2
2,LKDM,≤ 0.2
3,TKFR,≤ 0.2
4,VSVV,≤ 0.2
5,PFGA,≤ 0.2
6,PANN,≤ 0.2
7,MVRC,≤ 0.2
8,VVSA,≤ 0.2
9,WCTS,≤ 0.2
10,SHCT,≤ 0.2
11,QCQW,≤ 0.2
12,AWTE,≤ 0.2
13,CNGT,≤ 0.2
14,CITS,≤ 0.2
15,VKIM,≤ 0.2
16,GDNR,≤ 0.2
17,NSTN,≤ 0.2
18,WIVS,≤ 0.2

# — a collection of fitness landscapes (doi:10.1016/j.celrep.2020.107928)
